Whole data set: some 33,000 sequences, median “E-score (-0.5 to 0.5)” near -0.035, cut for the highest 2% near 0.35. The list shows a part of the results.
target: T1, Pdr3 (UniProt P33200); assay: PBM E-score (8-mer binding enrichment) (E-score (-0.5 to 0.5)); higher = stronger / more preferred TF binding; most listed sequences are background and not binding sites; conditions: protein concentration: 200 nM; construct: GST-full length
T1 sequence: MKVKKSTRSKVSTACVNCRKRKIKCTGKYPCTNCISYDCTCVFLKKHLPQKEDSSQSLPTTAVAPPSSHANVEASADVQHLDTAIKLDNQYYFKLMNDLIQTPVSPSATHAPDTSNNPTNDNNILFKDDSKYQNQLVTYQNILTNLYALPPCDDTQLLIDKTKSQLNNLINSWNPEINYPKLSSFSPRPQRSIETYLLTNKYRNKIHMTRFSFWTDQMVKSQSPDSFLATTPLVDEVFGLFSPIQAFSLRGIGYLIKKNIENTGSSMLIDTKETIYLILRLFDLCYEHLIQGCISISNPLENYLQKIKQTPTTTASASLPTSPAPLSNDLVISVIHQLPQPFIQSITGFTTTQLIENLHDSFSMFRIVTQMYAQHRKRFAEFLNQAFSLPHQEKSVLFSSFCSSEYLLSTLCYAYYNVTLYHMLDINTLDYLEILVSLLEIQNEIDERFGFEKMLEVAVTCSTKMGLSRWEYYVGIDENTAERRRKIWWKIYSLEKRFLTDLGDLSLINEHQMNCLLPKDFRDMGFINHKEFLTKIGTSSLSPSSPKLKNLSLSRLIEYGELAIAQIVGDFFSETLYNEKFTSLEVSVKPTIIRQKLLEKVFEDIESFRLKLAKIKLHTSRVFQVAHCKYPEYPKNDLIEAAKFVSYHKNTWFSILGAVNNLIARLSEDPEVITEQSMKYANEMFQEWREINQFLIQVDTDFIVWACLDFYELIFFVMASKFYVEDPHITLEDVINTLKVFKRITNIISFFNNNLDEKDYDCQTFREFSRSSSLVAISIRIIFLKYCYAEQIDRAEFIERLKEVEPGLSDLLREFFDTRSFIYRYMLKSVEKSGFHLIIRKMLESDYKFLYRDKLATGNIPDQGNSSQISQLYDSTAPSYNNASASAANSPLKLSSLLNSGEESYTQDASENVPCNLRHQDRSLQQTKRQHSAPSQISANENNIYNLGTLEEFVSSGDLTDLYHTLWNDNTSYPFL
Procedure, shortened: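 Yeast transcription factors carrying a GST tag, as full-length proteins or DNA-binding domains, were produced by PURExpress in vitro transcription/translation. About 100-200 nM protein was applied to universal all-10-mer Agilent arrays, double-stranded by primer extension on fresh or once-stripped slides. Bound protein was detected with fluorescent anti-GST, and scans were normalised with masliner. The Universal PBM Analysis Suite gave each ungapped eight-base word, pooled with its reverse complement, an E-score, a modified Wilcoxon-Mann-Whitney statistic.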

Row | Sequence | PBM E-score
1 | AATTGGGG | 0.0393
2 | TACACCGA | 0.00575
3 | ATATGCCA | 0.126
4 | AACCCGGT | 0.258
5 | GAAAAGGC | 0.0334
6 | AACACATA | -0.147
7 | GTGCCTGA | -0.0827
8 | TCAACAAA | 0.0103
9 | ACGCGCAC | -0.111
10 | GAAGAGCA | -0.104
11 | CAAGAGCA | -0.179
12 | ATCCACCA | -0.126
13 | CCACGCAA | -0.0616
14 | CTTGCTTA | -0.142
15 | CCACCGAC | 0.0367
16 | AAAGAGAT | -0.216
17 | TACAGATA | -0.0245
18 | AATCCTGC | -0.00239
19 | ACAACGGT | -0.0457
20 | ACACGGTA | 0.164
21 | AAACGATG | 0.0659
22 | TAGCTGCA | -0.151
23 | ATATGGGC | 0.0741
24 | ATGAGGCA | -0.151
25 | GACGTTGC | 0.107

Row | Sequence | PBM E-score
26 | ATATCATA | 0.0878
27 | ATATGCGC | 0.122
28 | AGGTACCC | -0.128
29 | CTTATAGC | -0.178
30 | CATCCAAC | -0.032
31 | GCAGTCGC | -0.0644
32 | ATAGGGGA | -0.0873
33 | GGCCGTGA | 0.23
34 | CGGCACCG | 0.336
35 | AATGCCGC | 0.33
36 | CACGACTC | -0.192
37 | GAACAACC | 0.193
38 | CAATGCTC | -0.0438
39 | ATTGTAAG | -0.237
40 | CAAACTTG | 0.0265
41 | CATAGTAG | 0.00191
42 | CTATGAGC | -0.185
43 | AAGTCCCC | -0.0843
44 | AACCCGGG | 0.424
45 | GAGGGTGA | -0.119
46 | TAGCTAGA | -0.157
47 | AAGTACGG | 0.0612
48 | ATGACGAA | -0.127
49 | CTACCAGC | -0.192
50 | ACTCGGAC | 0.305

Row | Sequence | PBM E-score
51 | CAGAGGGC | -0.133
52 | ACTACAGG | -0.0281
53 | AGTTTGAG | -0.0369
54 | AGTATGAA | 0.2
55 | AGACTGCC | -0.045
56 | CACCACCG | 0.0405
57 | ACTAAGCT | -0.172
58 | AGAAGCGG | 0.0983
59 | CCGTGGGC | 0.296
60 | AGCCAGTC | -0.0918
61 | GTTGCAGA | -0.0577
62 | TTCTACAA | -0.177
63 | TCCCTTAA | -0.232
64 | AAGATTAT | -0.033
65 | CCGGGTCC | 0.365
66 | TAATACAA | 0.0517
67 | GATTATTA | 0.0505
68 | AATTTAGA | 0.007
69 | AAATCCCA | -0.0896
70 | CCAACCGC | 0.146
71 | GGTGGCTA | -0.223
72 | TCCGCCCA | 0.305
73 | TAGGTATA | 0.0254
74 | AAATATGC | 0.0207
75 | GAATGGAC | -0.0365

Row | Sequence | PBM E-score
76 | CCGTATTA | 0.19
77 | ATGGTGTC | -0.0482
78 | ACGATTCC | 0.228
79 | CAATGGGA | 0.02
80 | ATGGTATC | 0.143
81 | GTTATTGA | -0.123
82 | ACCCTGAC | -0.153
83 | ATTCGTCA | -0.0777
84 | GGATCTGA | 0.0795
85 | AGTATCTA | -0.0775
86 | CCTTAGGC | -0.327
87 | AGTGTGCG | 0.094
88 | CCGCTGTA | 0.0822
89 | CGCCCACG | 0.0847
90 | CAATCGCA | -0.0175
91 | ACGACTCA | -0.132
92 | GTCACTTA | 0.0725
93 | ATGGGCCG | 0.0292
94 | TTAATTAA | -0.169
95 | GACGCATC | 0.0379
96 | CGCCTAGA | -0.0434
97 | CATAGGCA | -0.0874
98 | GGGAAGTA | 0.097
99 | TCCCCGAA | 0.232
100 | GGTCCTAA | -0.111

Row | Sequence | PBM E-score
101 | ACATAGCG | 0.00938
102 | CTTTGCAC | -0.15
103 | CAGGAGAC | -0.164
104 | GCATCCTA | 0.00911
105 | ACAGCCTA | -0.0216
106 | ATCAACTG | 0.047
107 | AAGAGGTC | -0.0861
108 | GCCGTTAA | 0.0215
109 | CCCGTCGG | 0.324
110 | GTTCACTA | -0.146
111 | CAATTGCG | 0.0949
112 | AATGTTCC | 0.249
113 | AGGTCATC | -0.118
114 | GCCCCAAC | 0.0203
115 | GAAGAGCC | 0.145
116 | AGTCCGTA | 0.149
117 | CCCCTATC | -0.162
118 | ACCGCACG | -0.0867
119 | ACTCGCAC | 0.0753
120 | ATATAGTG | 0.0328
121 | CCAGTTAC | -0.164
122 | ATCCCAGG | 0.113
123 | CCTAAAAA | -0.0956
124 | TGGCAAAA | -0.0248
125 | ACAATTAT | 0.0545

Row | Sequence | PBM E-score
126 | ATTTGTGG | -0.0692
127 | ACCAGACT | -0.233
128 | ACGAAGTG | -0.16
129 | CTTAAATC | -0.106
130 | TCAAGTAA | -0.222
131 | GCGTTCAA | -0.198
132 | ATAAGCCG | 0.16
133 | CTCGTTCA | -0.0847
134 | AAAGCATT | -0.237
135 | CCATGCAA | 0.11
136 | GCGACTAC | -0.0357
137 | ACAACTCC | 0.178
138 | ACTGGCTG | 0.0907
139 | GGGGGACC | -0.161
140 | CGATCTAA | -0.0767
141 | AACCCAGT | -0.102
142 | AAGGTGTA | -0.185
143 | CACTGCCA | -0.0758
144 | ATCCGGGG | 0.389
145 | AATTAACA | -0.0341
146 | TGGCGACA | -0.133
147 | TAAAACTA | -0.0639
148 | AGAAGTTC | -0.113
149 | CTATACGC | -0.0164
150 | CTGCTTCC | 0.177

Row | Sequence | PBM E-score
151 | GTCGAAAA | -0.0482
152 | ATAATGGC | 0.0655
153 | AATGCTCC | 0.0293
154 | CAACCTAG | -0.125
155 | AGCCTGGG | -0.0413
156 | CAGTCCCA | -0.161
157 | AAGGGAAG | -0.0188
158 | CTTGGTCC | 0.0714
159 | CACAACAG | -0.31
160 | AGAATACG | -0.0681
161 | GAACACAC | 0.138
162 | CAGCAGGA | -0.046
163 | AACCGGGA | 0.243
164 | AAAGGTTC | -0.0723
165 | TCAGTGCA | -0.159
166 | CAATGGTC | -0.0842
167 | CAAATCCG | 0.268
168 | AGATTAGC | -0.0982
169 | GTGCAGAA | -0.102
170 | AGAGACAG | -0.0197
171 | ATAGGGTA | -0.118
172 | GAGTCCTA | -0.235

Reference: the supplement of paper PMC3334620
